Laboratory results published in the supplement of paper PMC12217912.
The list shows a part of the results. Sequences were assembled here from the parent chain. Inactive controls read about 0.05.

B1: TEV protease; numbered along this chain (parent)
chain: MGESLFKGPRDYNPISSSICHLTNESDGHTTSLYGIGFGPFIITNKHLFRRNNGTLVVQSLHGVFKVKDTTTLQQHLVDGRDMIIIRMPKDFPPFPQKLKFREPQREERICLVTTNFQTKSMSSMVSDTSCTFPSGDGIFWKHWIQTKDGQCGSPLVSTRDGFIVGIHSASNFTNTNNYFTSVPKNFMELLTNQEAQQWVSGWRLNADSVLWGGHKVFMVKPEEPFQPVKEATQL

Variants of: B1
Test: raw area under fraction-flipped curve 0-4 h after induction (AUC4h, not background-subtracted), DNA-recorder readout of cleavage of the substrate (dimensionless); higher = more cleavage of the substrate by the protease variant
Conditions: temperature: 34 °C; time window: 0-4 h after rhamnose induction
Experimental: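 In vivo DNA recorder in E. coli TOP10(DE3) ΔrhaA at 34 °C. Each TEVp single-site mutant (parent TEVp 0) is paired with a single-site variant of the 7-mer TEVs (canonical ENLYFQ|S). The substrate sits between flexible linkers in a Bxb1-sfGFP-TEVs-SsrA fusion, so cleavage stabilises Bxb1 and speeds flipping of a recombination array, read by NGS. The value is the raw area under the fraction-flipped curve over 0-4 h after rhamnose induction (AUC4h), with ≥20 reads per time point. It is not background-subtracted; inactive controls average about 0.047.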
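Also: Bxb1 expression induced with 0.2% (w/v) L-rhamnose at OD600 near 0.5, cultures sampled hourly, flipped fraction per protease–substrate barcode pair counted by paired-end Illumina sequencing.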

| Variant | area with substrate ENLAFQS | area with substrate ENLCFQS | area with substrate ENLDFQS | area with substrate ENLEFQS | area with substrate ENLFFQS | area with substrate ENLHFQS | area with substrate ENLIFQS | area with substrate ENLKFQS | area with substrate ENLLFQS | area with substrate ENLNFQS | area with substrate ENLPFQS | area with substrate ENLQFQS | area with substrate ENLRFQS | area with substrate ENLSFQS | area with substrate ENLVFQS | area with substrate ENLWFQS | area with substrate ENLTFQS | area with substrate ENLMFQS | area with substrate ENLGFQS |
| --- | --- | --- | --- | --- | --- | --- | --- | --- | --- | --- | --- | --- | --- | --- | --- | --- | --- | --- | --- |
| K90W | 0.0781 | 0.0867 | 0.0599 | 0.0658 | 0.074 | 0.0757 | 0.0923 | 0.0849 | 0.059 | 0.061 | 0.0762 | 0.0369 | 0.0695 | 0.082 | 0.093 | 0.0417 |  |  |  |
| F92C | 0.066 |  | 0.0575 |  | 0.0735 | 0.0794 |  | 0.085 |  |  | 0.0647 | 0.0602 | 0.0723 | 0.0675 | 0.0824 | 0.066 | 0.0638 |  |  |
| K98C | 0.0624 | 0.0695 | 0.0618 | 0.0625 | 0.0745 | 0.0768 | 0.0838 | 0.132 | 0.0867 | 0.0674 | 0.0444 | 0.0662 | 0.075 | 0.0568 | 0.0955 |  | 0.0563 | 0.0757 |  |
| K98L | 0.0625 |  | 0.0609 |  | 0.0812 | 0.0888 |  | 0.0625 | 0.0801 | 0.0633 |  |  | 0.0711 | 0.0715 | 0.112 | 0.0961 | 0.0848 |  | 0.0655 |
| L99D | 0.0588 |  | 0.043 |  | 0.058 | 0.0531 | 0.0496 | 0.0678 |  |  |  |  |  |  |  |  |  |  |  |
| P104G | 0.0556 | 0.0531 | 0.0622 | 0.0622 | 0.0602 | 0.0536 |  | 0.0589 |  | 0.0579 | 0.0596 | 0.0482 | 0.0542 | 0.0552 | 0.0553 | 0.0552 |  | 0.0425 |  |
| Q105D | 0.0662 | 0.0701 | 0.0585 | 0.092 | 0.0758 | 0.124 |  | 0.0735 | 0.077 | 0.0267 | 0.0689 | 0.0779 | 0.0515 | 0.0734 | 0.0848 | 0.0565 | 0.0361 |  | 0.07 |
| Q105R | 0.0586 | 0.0629 | 0.066 | 0.0514 | 0.0822 | 0.0695 | 0.0948 | 0.0864 |  | 0.0681 | 0.0577 |  | 0.0834 | 0.0788 | 0.0743 | 0.0359 | 0.052 |  | 0.0743 |
| E107Y | 0.0676 |  | 0.0618 |  | 0.0941 | 0.0677 | 0.0869 | 0.067 |  | 0.0599 | 0.0549 | 0.061 | 0.0856 | 0.0471 |  |  | 0.0553 |  |  |
| E108A | 0.0367 | 0.0471 | 0.0573 | 0.0547 | 0.0639 | 0.0379 | 0.0717 | 0.0594 | 0.0616 | 0.063 |  |  | 0.0579 | 0.05 |  | 0.056 |  | 0.0617 |  |
| R109G | 0.0673 | 0.0663 | 0.0343 | 0.0599 | 0.0795 | 0.0648 | 0.0891 | 0.0936 | 0.0529 | 0.0789 | 0.0497 | 0.0666 | 0.0837 | 0.0668 | 0.082 | 0.0639 |  | 0.035 |  |
| R109I | 0.0733 | 0.0593 | 0.0599 |  | 0.0823 | 0.0765 |  | 0.0996 | 0.0637 | 0.0679 | 0.0677 |  | 0.0583 |  | 0.0747 | 0.0514 |  |  | 0.0782 |
